Results published in article PMC5006001.
These are yes or no findings as the source states them, for the method shown. For some assays here: Binding seen in cells or lysates may run through a third protein. Some binding calls cover weakened binding; strength is not graded here. For some assays here: Where a sequence is shown, tags or fusion partners need not be part of it. Each block holds one binder with its values, some of them ahead of it.

Columns and labels:
[1] = target: T1, Trf2 tagged on its C-terminus with a 6xHis-Tev-3xFlag tag (mouse (endogenous in testis, knock-in allele)) (UniProt P62340); experiment: co-IP; anti-Flag M2 resin on MNase digested chromatin from formaldehyde cross-linked testis; immunoblot; Trf2-/- testis as control
T1 sequence: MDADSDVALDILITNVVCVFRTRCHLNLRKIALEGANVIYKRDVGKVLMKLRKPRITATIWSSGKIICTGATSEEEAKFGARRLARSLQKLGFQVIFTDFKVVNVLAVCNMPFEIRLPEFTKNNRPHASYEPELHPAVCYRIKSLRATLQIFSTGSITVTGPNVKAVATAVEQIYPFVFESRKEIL

[2] = target: T1, Trf2 tagged on its C-terminus with a 6xHis-Tev-3xFlag tag (mouse (endogenous in testis, knock-in allele)); experiment: co-IP; tandem affinity purification of tagged Trf2 from pooled gel filtration fractions B3-B7 of testis cytoplasmic extract: anti-Flag M2-agarose, Flag peptide elution, Talon resin, elution with 0.1 M EDTA; immunoblot; WT testis as control
[3] = target: T2, ALF (TFIIA-like factor) (mouse (endogenous in testis)) (UniProt Q8R4I4); experiment: co-IP; sequential: proteins eluted from the anti-Flag IP of Trf2tag/+ testis extract were reprecipitated with ALF antibody; immunoblot
T2 sequence: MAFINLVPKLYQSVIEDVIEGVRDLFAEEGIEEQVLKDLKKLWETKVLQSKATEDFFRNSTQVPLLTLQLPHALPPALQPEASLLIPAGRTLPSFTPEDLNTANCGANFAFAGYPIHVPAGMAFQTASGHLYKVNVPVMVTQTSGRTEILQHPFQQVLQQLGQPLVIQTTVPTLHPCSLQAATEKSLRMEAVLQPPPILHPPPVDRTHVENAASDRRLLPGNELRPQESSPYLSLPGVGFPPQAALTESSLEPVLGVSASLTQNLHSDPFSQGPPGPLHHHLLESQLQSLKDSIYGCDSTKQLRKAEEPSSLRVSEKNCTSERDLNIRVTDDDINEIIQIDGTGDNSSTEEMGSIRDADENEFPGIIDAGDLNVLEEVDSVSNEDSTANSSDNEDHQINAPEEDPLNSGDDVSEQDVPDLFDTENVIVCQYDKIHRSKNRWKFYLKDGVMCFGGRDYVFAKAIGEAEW

[4] = target: T1, Trf2 tagged on its C-terminus with a 6xHis-Tev-3xFlag tag (mouse (endogenous in testis, knock-in allele)); experiment: SEC; gel filtration of testis cytoplasmic extract (5-10 mg protein) on Superose 6 (10/300), 0.4 ml/min, 100 mM KCl (also up to 0,5 M KCl); fractions analysed by western blot
[5] = target: T1, Trf2 tagged on its C-terminus with a 6xHis-Tev-3xFlag tag (mouse (endogenous in testis, knock-in allele)); experiment: co-IP; sequential: proteins eluted from the anti-Flag IP of Trf2tag/+ testis extract were reprecipitated with ALF antibody; immunoblot
[6] = target: T3, Trf2 tagged on its C-terminus with a 6xHis-Tev-3xFlag tag (mouse (endogenous in testis, knock-in allele)), P62340; experiment: co-IP; anti-Flag immunoprecipitation from cytoplasmic extracts of heterozygous Trf2tag/+ and WT testis; immunoblot for tagged and native Trf2; conditions: remark: other sources report otherwise
T3 chain: T1 sequence

[7] = target: T4, TFIIA (mouse (endogenous in testis)) (UniProt Q99PM3+Q80ZM7); experiment: SEC; gel filtration of testis cytoplasmic extract (5-10 mg protein) on Superose 6 (10/300), 0.4 ml/min, 100 mM KCl (also up to 0,5 M KCl); fractions analysed by western blot
T4 sequence 1: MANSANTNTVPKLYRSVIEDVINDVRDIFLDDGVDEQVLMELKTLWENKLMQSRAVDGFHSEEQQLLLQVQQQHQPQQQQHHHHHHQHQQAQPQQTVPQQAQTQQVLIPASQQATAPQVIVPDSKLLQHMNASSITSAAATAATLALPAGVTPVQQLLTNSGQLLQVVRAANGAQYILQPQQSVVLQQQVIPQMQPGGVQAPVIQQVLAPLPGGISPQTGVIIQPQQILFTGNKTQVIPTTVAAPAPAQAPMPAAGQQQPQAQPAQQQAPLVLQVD
T4 sequence 2: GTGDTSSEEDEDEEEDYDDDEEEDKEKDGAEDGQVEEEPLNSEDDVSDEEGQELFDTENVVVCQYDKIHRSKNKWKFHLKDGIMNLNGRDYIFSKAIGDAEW
T4 sequence 3: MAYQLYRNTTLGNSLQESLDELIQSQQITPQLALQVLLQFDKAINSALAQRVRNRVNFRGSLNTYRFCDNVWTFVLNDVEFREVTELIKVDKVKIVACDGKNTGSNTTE

B1: TFIIA (complex, UniProt Q99PM3 1-276; Q99PM3 277-378; Q80ZM7 1-109)
chain 1: T4 sequence 1
chain 2: T4 sequence 2
chain 3: T4 sequence 3
- binding [1]: binds
- binding [2]: binds
- binding [3]: no binding
- binding [4]: binds

B3: Trf2 tagged on its C-terminus with a 6xHis-Tev-3xFlag tag, P62340 1-186 (protein)
chain: T1 sequence
- binding [6]: no binding

B4: Taf7l (protein, UniProt Q9D3R9 1-471)
chain: MERGEEAPTEGAPPEGALVEAKAPVIPEAPATDVSTTEEAGSKEPQVPSGPRPEGAGDTCDTRGARGPPTPGRAKSQKTPRQGTARCQTLESAMRSMSVRLECHDVEEQFILRLPPEQAYAVRKIIHSRNAAWKDKLKIDFSPDGHHAVVQVDNVSLPAKLVNLPCVIGSLKTIDRKTFYKTADVSQMLVCSPEGEPHSPPEEPVVSTGPTVIGISEGKAERKKYNWKHGITPPLKNVRKKRFRKTTKKLPDVKQVDEINFSEYTQSPSVEKEVKRLLYSDAEAVSVRWEVVDDDDAKEIESQGSMPTTPGISQMGGASLSDYDVFREMMGDSGSNSNDVEEKSNEGDDDDDEDEDDEDYGNEKEEEETDNSEEELEKELQAKFNEFSLHEADQDYSSITMAIQKLIFIKEKRLQMIYKKAQRQKELLRKVENLTLKRHFQNVLGKLNIMEKEKCEQIYHLQEQLKCFLKE
- binding [7]: no binding

Results, then the binder that gave them:

- binding [1]: binds
- binding [2]: binds
- binding [5]: binds
- binding [4]: binds
B2: ALF (TFIIA-like factor) (protein, UniProt Q8R4I4 1-468)
chain: T2 sequence

- binding [7]: no binding
B5: Tbp (TATA-binding protein) (protein, UniProt P29037 1-316)
chain: MDQNNSLPPYAQGLASPQGAMTPGIPIFSPMMPYGTGLTPQPIQNTNSLSILEEQQRQQQQQQQQQQQQQAVATAAASVQQSTSQQPTQGASGQTPQLFHSQTLTTAPLPGTTPLYPSPMTPMTPITPATPASESSGIVPQLQNIVSTVNLGCKLDLKTIALRARNAEYNPKRFAAVIMRIREPRTTALIFSSGKMVCTGAKSEEQSRLAARKYARVVQKLGFPAKFLDFKIQNMVGSCDVKFPIRLEGLVLTHQQFSSYEPELFPGLIYRMIKPRIVLLIFVSGKVVLTGAKVRAEIYEAFENIYPILKGFRKTT
